Reference: the supplement of paper PMC4723716
± gives the uncertainty stated by the source. Over roughly 9,900 compounds, “viability index relative to DMSO control” has its median near 1; the lowest 2% begin near 0.85. Some of the results follow.

Each compound was assayed on Plasmodium falciparum NF54 stage V gametocytes (assay: viability index relative to DMSO control (fraction); higher = less gametocyte killing). Conditions: 2.5 µM, library set: Broad Institute DOS, incubation time: 72 h.
Method in brief: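 Compound at 2.5 µM was incubated for 72 hr at 37°C under low oxygen with P. falciparum NF54 stage V gametocytes (0.75% gametocytemia, 1.25% hematocrit, 10 µl, serum-free screening medium) in 1,536-well plates. Staining used 3 µl of 2.5 µM MitoTracker Red CMXRos plus 0.13% saponin for one to two hours, and red particles of 20–70 µm2 were counted in one imaged field per well. Each viability index is that count relative to the plate mean of solvent-only wells.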

| Structure (SMILES) | viability index |
| --- | --- |
| C[C@@H]1CN([C@H](C)CO)C(=O)c2ccccc2-c2ccccc2CO[C@H]1CN(C)C(=O)Nc1ccnc(N2CCOCC2)c1 | 0.943 ± 0.095 |
| COc1cccc(NC(=O)N2[C@@H]3CNC[C@H]2[C@H]3c2ccc(-c3ccncc3)cc2)c1 | 1.08 ± 0.036 |
| O=C(c1cccnc1)N1CC[C@@H]2[C@H](CO)Nc3ccc(C4=CCCCC4)cc3[C@@H]21 | 1.09 ± 0.082 |
| CCC(=O)N1[C@H](CO)[C@H](c2ccccc2)C12CN(C(=O)c1ccc3c(c1)OCO3)C2 | 1.12 ± 0.048 |
| C/C=C/c1ccccc1[C@@H]1[C@H](C#N)N(c2nc(CC)cs2)[C@H]1CO | 1.12 ± 0.025 |
| COc1ccc2c3c([nH]c2c1)[C@H](CO)N(C[C@]31CCN(CC1)C(=O)c1ccccc1)C(=O)CC1CC1 | 1 ± 0.016 |
| N#C[C@@H]1[C@H](c2ccccc2-c2cccc(F)c2)[C@H](CO)N1C(=O)NC1CCCCC1 | 1.07 ± 0.079 |
| CO[C@@H]1CN(C)C(=O)c2ccc(NC(C)=O)cc2OC[C@@H](C)N(Cc2cccc(F)c2)C[C@@H]1C | 0.998 ± 0.057 |
| COCC#Cc1ccc([C@H]2[C@H](CO)N3C(=O)CN(C(=O)c4ccncc4)C[C@@H]23)cc1 | 1.06 ± 0.03 |
| O=C(NC1CCCC1)N1CCCCN2[C@H](CO)[C@H](c3ccc(-c4cccnc4)cc3)[C@@H]2C1 | 1.08 ± 0.086 |
| CCCNC(=O)N1[C@H](CO)[C@@H](c2ccccc2)C12CN(C(=O)C1CCCCC1)C2 | 1.1 ± 0.015 |
| CCCNC(=O)N1[C@@H]2Cn3c(cccc3=O)[C@H]1[C@@H](C(=O)N1CCC(Cc3ccccc3)CC1)[C@@H]2CO | 1.05 ± 0.064 |
| COc1ccc(-c2cn(CC[C@@H]3CC[C@H](NC(=O)c4cnccn4)[C@H](CO)O3)nn2)cc1 | 1.14 ± 0.091 |
| CO[C@@H]1CN(C)C(=O)c2cc(NC(C)=O)ccc2OC[C@@H](C)N(Cc2ccncc2)C[C@H]1C | 1.01 ± 0.075 |
| CCC(=O)Nc1ccc2c(c1)OC[C@@H](C)N(Cc1ccccc1)C[C@@H](C)[C@H](OC)CN(C)C2=O | 0.943 ± 0.18 |
| C[C@H]1CCCCO[C@H](CN(C)C(=O)CCC(F)(F)F)[C@@H](C)CN([C@@H](C)CO)C(=O)c2cc(NC(=O)C3CCCCC3)ccc2O1 | 1.12 ± 0.078 |
| C[C@@H]1CCCCO[C@@H](CN(C)Cc2ccc(C(F)(F)F)cc2)[C@H](C)CN([C@@H](C)CO)C(=O)c2cc(NC(=O)Nc3cccc4ccccc34)ccc2O1 | 0.949 ± 0.16 |
| C/C=C/c1ccccc1[C@H]1[C@@H](C#N)N(C(=O)CN2CCOCC2)[C@H]1CO | 1.14 ± 0.092 |

| Structure (SMILES) | viability index |
| --- | --- |
| CS(=O)(=O)N1[C@H](C#N)[C@@H](c2ccc(C#Cc3cccc(F)c3)cc2)[C@H]1CO | 1.131 ± 0.0054 |
| CCCNC(=O)N1[C@H](CO)[C@@H](c2ccccc2-c2ccccc2F)[C@@H]1C#N | 1.07 ± 0.13 |
| CO[C@@H]1CN(C)C(=O)c2ccc(NC(=O)Nc3ccccc3)cc2OC[C@H](C)N(C(=O)CC2CC2)C[C@H]1C | 1.07 ± 0.092 |
| O=C(NCC1CCCCC1)[C@H]1[C@H](CO)[C@H]2Cn3c(ccc(-c4ccc(F)cc4)c3=O)[C@@H]1N2 | 1.04 ± 0.015 |
| COc1ccccc1NC(=O)N1CCCCN2[C@@H](CO)[C@H](c3ccc(-c4cccc(C#N)c4)cc3)[C@@H]2C1 | 0.979 ± 0.022 |
| O=C(CN1CCOCC1)NC[C@H]1N[C@H](CO)[C@@H]1c1ccc(-c2ccccc2)cc1 | 0.983 ± 0.05 |
| CCCC(=O)N1C[C@]2(CN(C2)C(=O)C2CC2)c2c([C@H]1CO)n(C)c1cc(OC)ccc21 | 1.05 ± 0.035 |
| C[C@@H]1CN([C@@H](C)CO)C(=O)c2cc(NC(=O)Nc3ccc(C(F)(F)F)cc3)ccc2O[C@@H](C)CCCCO[C@H]1CN(C)CC1CCCCC1 | 1.04 ± 0.015 |
| C/C=C/c1ccc([C@H]2[C@@H](CO)N(C(=O)C3CC3)[C@H]2CNC(=O)NC(C)C)cc1 | 0.989 ± 0.018 |
| CCC(=O)N1C[C@]2(CCN(Cc3ccccc3Cl)CC2)c2c([nH]c3cc(OC)ccc23)[C@H]1CO | 1.01 ± 0.026 |
| O=C(c1cc2c(c(-c3cccc(Br)c3)n1)[C@H](CCO)NC2)N1CCCCC1 | 0.9968 ± 0.0045 |
| COc1ccc2c3c([nH]c2c1)[C@H](CO)N(C[C@]31CCN(C)CC1)C(=O)Cc1ccccc1 | 1.01 ± 0.1 |
| C[C@@H]1CCCCO[C@H](CN(C)C(=O)NC2CCCCC2)[C@@H](C)CN([C@H](C)CO)C(=O)c2cc(N(C)C)ccc2O1 | 1.14 ± 0.11 |
| O=C(C[C@H]1CC[C@H]2[C@@H](COC[C@@H](O)CN2S(=O)(=O)c2cccc(Cl)c2)O1)N1CCOCC1 | 0.968 ± 0.11 |
| COc1ccc2c3c([C@H](CO)N(C[C@]33CCN(CC3)C(=O)c3ccc4OCOc4c3)C(=O)Nc3ccc(F)cc3)n(C)c2c1 | 0.846 ± 0.055 |
| C[C@@H]1CN([C@@H](C)CO)C(=O)c2cc(-c3ccc(C#N)cc3)cnc2O[C@@H]1CN(C)Cc1cccnc1 | 1.05 ± 0.017 |
| CN(C)CC(=O)N[C@H]1CC[C@@H](CCNC(=O)C2CCC2)O[C@@H]1CO | 1.13 ± 0.083 |
| COc1ccc(C#Cc2cccc(-c3nc(C(=O)NCc4ccc5c(c4)OCO5)cc4c3[C@@H](CCO)N(S(=O)C(C)(C)C)C4)c2)cc1OC (stereo partly specified) | 0.9061 ± 0.0023 |
